Data as given in the BET-seq Pho4 binding data (Le et al. 2018).
The list shows a part of the results. Values were computed here from the reads of four pooled replicates and scatter widely.

Biological target: T1, Pho4 (S. cerevisiae) (UniProt P07270)
T1 sequence: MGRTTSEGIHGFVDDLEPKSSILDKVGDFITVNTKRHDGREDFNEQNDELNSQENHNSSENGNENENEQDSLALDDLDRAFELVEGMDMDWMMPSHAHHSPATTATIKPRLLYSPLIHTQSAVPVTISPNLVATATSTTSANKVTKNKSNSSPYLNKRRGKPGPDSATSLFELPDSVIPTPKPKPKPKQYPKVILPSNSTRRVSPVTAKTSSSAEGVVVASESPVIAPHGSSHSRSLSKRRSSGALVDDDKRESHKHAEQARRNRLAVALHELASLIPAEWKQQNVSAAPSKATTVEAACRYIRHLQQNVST
Experiment: relative binding free energy (BET-seq); higher = weaker binding
Settings: reference: library average

Relative binding free energy, -0.14 kcal/mol:
GGGGGCACGTGGACGG
GACAGCACGTGGGGTG
TGTGGCACGTGTTCCG
TCCGACACGTGGGGGG

Relative binding free energy, 0.5 kcal/mol:
AAATTCACGTGAGCGG
GAGTTCACGTGAGGTG

Relative binding free energy, -0.11 kcal/mol:
GGGAGCACGTGTTCAT
GGGAGCACGTGTCGGG
ATTCGCACGTGGTCGT
AAAAGCACGTGGTAGG
AATGGCACGTGTGTGT
TAAGACACGTGGGTCT
TTATGCACGTGGGGCT

Relative binding free energy, 0.21 kcal/mol:
GTGTGCACGTGAACGT
TTGGACACGTGATTTG

Relative binding free energy, -0.09 kcal/mol:
AGTAGCACGTGGGGAA
AGCGTCACGTGGGGGA
AATCGCACGTGGTTGG
CTCAGCACGTGGTTGG

Relative binding free energy, 0.32 kcal/mol:
TGAATCACGTGAATTG
AGGGACACGTGAATGT
GTTTTCACGTGGAGGT

Relative binding free energy, 0.33 kcal/mol:
TTTTTCACGTGTAATT

Relative binding free energy, -0.07 kcal/mol:
ATGGTCACGTGCCTGT
CGTAGCACGTGTGTAA
TAAGGCACGTGTTAAA
ATAGTCACGTGGTCGT
GGGAACACGTGCGTTG

Relative binding free energy, 0.13 kcal/mol:
GTTTACACGTGGGGGC
GGGCTCACGTGTAGGA
TTGTTCACGTGGCGTT
TATTGCACGTGTGTTT
GTAGTCACGTGTAGTA

Relative binding free energy, -0.25 kcal/mol:
TTAGCCACGTGGGGGG
TTCACCACGTGGGGTG
TGGGCCACGTGTTTGT

Relative binding free energy, 0.09 kcal/mol:
CGGTGCACGTGTGAAT
TGGATCACGTGGATTA
TTGTCCACGTGTACTT
GTAATCACGTGGGATG
GAGGTCACGTGCTAGT
TGGGTCACGTGGACGT

Relative binding free energy, 0.35 kcal/mol:
GGTTTCACGTGCCGTG
TATATCACGTGAATAT
GATCTCACGTGTTGAT

Relative binding free energy, -0.18 kcal/mol:
GGTGGCACGTGCTTCG
TAAAGCACGTGGGAAG

Relative binding free energy, 0 kcal/mol:
CGGTGCACGTGTAAGG
TGGCACACGTGGTCTG
AGTGACACGTGTTATG

Relative binding free energy, -0.22 kcal/mol:
AGTGGCACGTGCGGGT
CGCAGCACGTGGGGTT

Relative binding free energy, -0.03 kcal/mol:
ATGGGCACGTGTTGGT
ATCGGCACGTGTGTTG
CGTAGCACGTGTGGTC
CAATGCACGTGTTGTA

Relative binding free energy, 0.27 kcal/mol:
CTTTGCACGTGAGTTG
TGACTCACGTGTGTGA

Relative binding free energy, -0.15 kcal/mol:
GACTCCACGTGGGGGG
AGTGGCACGTGTGCGT
AGTGGCACGTGCAGGG
CTATGCACGTGGGGCA

Relative binding free energy, -0.08 kcal/mol:
GTAAGCACGTGGATAG
CTGGACACGTGGTCGG
TTTGACACGTGGAGAT

Relative binding free energy, -0.2 kcal/mol:
AGAGGCACGTGGTGCG
TTGACCACGTGGTGAT

Relative binding free energy, 0.34 kcal/mol:
TTGTTCACGTGTATGT
TTTTTCACGTGAGACG

Relative binding free energy, -0.19 kcal/mol:
CTATACACGTGGGGGG
GAGAGCACGTGGGCGG
GCTAGCACGTGGGGTG

Relative binding free energy, 0.02 kcal/mol:
TTGCGCACGTGATAGT
ATTGTCACGTGGTCCG
TTGATCACGTGGGACG
TGCCGCACGTGTGAGT
GCAGCCACGTGTGTGG

Relative binding free energy, -0.06 kcal/mol:
AAAGACACGTGGGGCT
TGTGGCACGTGGAGGC
TGTTCCACGTGGGGGG
GAGTGCACGTGTAATT
AGTGCCACGTGTCGGG
TGTTACACGTGGTAGC

Relative binding free energy, 0.3 kcal/mol:
GAAAGCACGTGAGGGA

Relative binding free energy, 0.37 kcal/mol:
TTGTTCACGTGACGCG
TAGTACACGTGAGTAT
GGATTCACGTGTGAGT

Relative binding free energy, 0.11 kcal/mol:
ATGATCACGTGTGTTA
ATACTCACGTGGTATG
AGATACACGTGTGGAG

Relative binding free energy, -0.23 kcal/mol:
ACGTGCACGTGGGCTT
ACATGCACGTGTGTTG
TATAGCACGTGGGTAC
AGTGGCACGTGGCTCG

Relative binding free energy, -0.27 kcal/mol:
AGGGCCACGTGCTGGG

Relative binding free energy, 0.12 kcal/mol:
AATAACACGTGTGTAG
TCCTGCACGTGTTTGG
AGCTTCACGTGGTCGG
GTAGACACGTGTGGCT

Relative binding free energy, -0.42 kcal/mol:
AGTGCCACGTGGGGGC

Relative binding free energy, -0.05 kcal/mol:
CAGGGCACGTGTATGT
TGCAGCACGTGTTGGC
ACAGTCACGTGGTGAG
TCGGTCACGTGGTAGA
GACGTCACGTGGGGTA
ATGTCCACGTGGTTGT

Relative binding free energy, 0.05 kcal/mol:
GGGGGCACGTGATTAT
TACATCACGTGGGTTT

Relative binding free energy, 0.23 kcal/mol:
TGCTTCACGTGTATAA
CTTATCACGTGTGGTG
GTAAGCACGTGAGTTC
GGGCTCACGTGGGGAT
GTGTGCACGTGTAGCC

Relative binding free energy, -0.02 kcal/mol:
TATTGCACGTGGGTCC
TTTAACACGTGGATTG
TTTCACACGTGTATGG
CGCGTCACGTGTGGGA
ATTTACACGTGGGGCG
TACGGCACGTGATTGG

Relative binding free energy, 0.25 kcal/mol:
CGGGTCACGTGGATTA
ATCTTCACGTGGTGTT
TGCGTCACGTGAGTCT

Relative binding free energy, 0.15 kcal/mol:
CTAATCACGTGTGATG
TATTACACGTGCGGTT
GTAGACACGTGTAGGA
GGACTCACGTGCGGTG
ATTTTCACGTGGGCGT

Relative binding free energy, 0.26 kcal/mol:
CAAATCACGTGTGGTT
GGTGTCACGTGTGTGC
GGGTTCACGTGGTCAG
ATGTTCACGTGTAACT

Relative binding free energy, 0.01 kcal/mol:
TGTCACACGTGCGTGT
ATATGCACGTGCTGTT
ATATGCACGTGCCGTG
GGAGGCACGTGTGCAA
TTGGACACGTGCGGTG
GGAAACACGTGCAGGG

Relative binding free energy, 0.24 kcal/mol:
TGGGTCACGTGCAAGC
ATCTACACGTGTAGGT
CATATCACGTGTGATT

Relative binding free energy, 0.04 kcal/mol:
GGGAACACGTGTTGAG
AGGGGCACGTGAAAGG
TGGGTCACGTGGCTCA

Relative binding free energy, -0.04 kcal/mol:
GTGGGCACGTGTGCTA
ATTGGCACGTGGGAAC

Relative binding free energy, -0.21 kcal/mol:
AATGGCACGTGGGGAG
CGTGGCACGTGTGTTC
ATAAGCACGTGGTATG

Relative binding free energy, -0.16 kcal/mol:
TGAGGCACGTGTCTGT
TGGAGCACGTGGCCTG
GGTGCCACGTGGGAGC

Relative binding free energy, 0.19 kcal/mol:
ATTGTCACGTGTAGCG
CGGTTCACGTGGATTG
TATATCACGTGAGGGA
TATATCACGTGTAGAA

Relative binding free energy, 0.29 kcal/mol:
GATTTCACGTGACTTG

Relative binding free energy, 0.16 kcal/mol:
TGATTCACGTGCTTAT
ATTATCACGTGGAGGA

Relative binding free energy, -0.01 kcal/mol:
CTGTGCACGTGGAGGT
TATGACACGTGTCTGT

Relative binding free energy, 0.28 kcal/mol:
GGTGTCACGTGAGTCA
TGATACACGTGAGGGG
TGGGTCACGTGTGATT
TAGTTCACGTGTTTCG
TGGTTCACGTGCAAGA
GAGATCACGTGTTGGT

Relative binding free energy, 0.1 kcal/mol:
ATTCACACGTGAGGGT
TATGACACGTGTGGGG
TGTCTCACGTGGGGAC
ATGGTCACGTGTACAG

Relative binding free energy, 0.46 kcal/mol:
GTTTTCACGTGTTACT
TGATTCACGTGAGATT

Relative binding free energy, -0.1 kcal/mol:
TTTGGCACGTGCGAGG
TAGTGCACGTGCTGTA
GGTGCCACGTGTGTAT
CTCGTCACGTGCGGGG
TTTCGCACGTGCGGGA

Relative binding free energy, -0.36 kcal/mol:
AGGGGCACGTGCCGGT

Relative binding free energy, 0.07 kcal/mol:
CGGCTCACGTGGTAGG
GTGGACACGTGCGTTA

Relative binding free energy, -0.17 kcal/mol:
TTGACCACGTGGGGCG
AAGGGCACGTGGTATA

Relative binding free energy, 0.22 kcal/mol:
ATCTGCACGTGAAGTT
ATGCTCACGTGATGTT
GCGAGCACGTGATTGT
TAGTTCACGTGTATAA
GTGCTCACGTGTTATT

Relative binding free energy, -0.12 kcal/mol:
TATTGCACGTGGACGG
AGAAGCACGTGGTCGT
ATGGCCACGTGGTTCT
ATGTGCACGTGGTCTG

Relative binding free energy, 0.06 kcal/mol:
TTAATCACGTGGGCTA
TCTTGCACGTGGCGGG
GGTTACACGTGGGGTT
TTATACACGTGGTGAG

Relative binding free energy, 0.2 kcal/mol:
TAGTACACGTGATGGC
CTGATCACGTGTCGGT
TTTTACACGTGTCGGC
TAAATCACGTGTGTTC

Relative binding free energy, 0.14 kcal/mol:
TACTGCACGTGGTAGA
TTTAGCACGTGATGGC
ATATTCACGTGGGTAC
ACTGTCACGTGCGGGT
TCGTTCACGTGGTGCT
TTTTCCACGTGGTAAG
ACTTGCACGTGAGTTG

Relative binding free energy, 0.18 kcal/mol:
TGGATCACGTGTGCGG
GTCTGCACGTGATTGG

Relative binding free energy, -0.13 kcal/mol:
GTAAACACGTGGGGGA
GGGCCCACGTGGTGGG
GTTGGCACGTGGCTGG
TGTGGCACGTGCCTGG
AAGAGCACGTGTAGTA

Relative binding free energy, -0.28 kcal/mol:
CGGGGCACGTGCGGAG
CAGGCCACGTGGGGGT

Relative binding free energy, 0.03 kcal/mol:
GCTGTCACGTGCGTGG
TGAGTCACGTGGTAGA

Relative binding free energy, 0.38 kcal/mol:
TAGGACACGTGAACGG

Relative binding free energy, 0.17 kcal/mol:
CTTGTCACGTGATGGT
GGGGTCACGTGTGGGA
TAGAGCACGTGAGAGG
CGTTTCACGTGGCTTA
GGGCGCACGTGAAATG
CGTTGCACGTGTGGGC

Relative binding free energy, 0.08 kcal/mol:
GGGGGCACGTGACAGG
AAAGGCACGTGATTGT
AGACGCACGTGTGGGG
GTATGCACGTGTGGAT
GGTCGCACGTGTGGTT
ATCTGCACGTGTTGCT
